# This sample is rich in variants without activity.
# B1: TPR 5TU (parent)
# chain: GGAUCUUCUCGAUCUAACAAAAAAGACAAAUCUGCCACAAAGCUUGAGAGCAUCUUCGGAUGCAGAGGCGGCAGCCUUCGGUGGCGCGAUAGCGCCAACGUUCUCAACUAUGACACGCAAAACGCGUGCUCCGUUGAAUGGAGUUUAUCAUG
# Variants of: B1
# Assay: polymerase ribozyme fitness, log enrichment relative to wild type (log ratio); higher = more active; in vitro selection for triplet polymerase activity
# Summary of the method: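 Mutant libraries were PCR-built and transcribed for each subunit of a heterodimeric triplet polymerase ribozyme and selected for one round in triplicate at −7 °C, frozen, before gel excision of extended constructs and streptavidin-bead capture. Input and output libraries were Illumina-sequenced, keeping genotypes with ≥10 input reads and ≥1 read per output. Fitness is a logarithmic ratio of genotype to wild-type enrichment, in base 2, using inverse-variance-weighted replicate averages.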
row,Variant,polymerase ribozyme fitness (log ratio)
1,A39U G68A C87U G92U,≤ -4.2
2,A39G U61A G71A C93G G143U U145A,≤ -4.2
3,C38U C85U C95G C105A,-3.93
4,A39U A49G G88C A121G G141C,≤ -4.2
5,A39U G42U C93U G94C C96U,≤ -4.2
6,C38U U55A A60G C75G C76G A115U A122U C125G,≤ -4.2
7,A39C C93U,-3.4
8,A39G G46A U78A A142U,≤ -4.2
9,A39C G80A A97U G126U U144A,≤ -4.2
10,C38U C76A G84A G94A U135G G141A U144C,≤ -4.2
11,A39C C43G G92C U101G C116U C118A A137U,≤ -4.2
12,A39U A47G G50A A52G U53A C87U G88C C99G U135G,≤ -4.2
13,C38U C105U C118G U139G,-1.24
14,C38U U53A G70A C93U A107G U139C,≤ -4.2
15,A39G G42A G88C,≤ -4.2
16,A39C U44A A66G C69G C114U U135C,≤ -4.2
17,A39U U45G U90A A91C C93U C105G,≤ -4.2
18,C38U G80C,≤ -4.2
19,A39C U44G G50C A52G A142C,≤ -4.2
20,C38U U55A,-0.159
21,A39C A41C U55A C76G G81A U90G C93G C131G,≤ -4.2
22,A39G U55A G100U G128U A142U,≤ -4.2
23,A39G A40G A41U G58A G59U U61A C79A U144A G152C,≤ -4.2
24,C38U U56A G81C U82C G88A C105A C129G,≤ -4.2

row,Variant,polymerase ribozyme fitness (log ratio)
1,A39U C63U C75G C76A C87G C105U C129U G143C,≤ -4.2
2,C38U U55A G58C C87A G128A A147C,≤ -4.2
3,A39C G46A G84A C99U C123U U135C,≤ -4.2
4,A39U A52U C76G G83A,≤ -4.2
5,A39G U55A C96A A97U,-3.27
6,A39U G42U G50C G59A A73G G128U,≤ -4.2
7,A39U C54U G74A G86U A98G U111C C129U U139A,≤ -4.2
8,A39C U61G C95G,≤ -4.2
9,A39C G94A,-2.88
10,A39U A64G G86C,≤ -4.2
11,C38U G84U U127G,≤ -4.2
12,A39C A49G A64C U77C C129G,≤ -4.2
13,A39U G48C G67A C85G G86U G88A G92A C118G,≤ -4.2
14,A39U U61A A64C G86C,≤ -4.2
15,A39U A49C G81U G84U C87U A115U,≤ -4.2
16,C38U G62C C76G G133C,≤ -4.2
17,A39U C79G C96G A106G A121G U135G U139G,≤ -4.2
18,A39C C75U G81A C96U A97G U101A G141C,≤ -4.2
19,A39C A47C U127A,≤ -4.2
20,A39C A49C G83A A98G G126A G143U,≤ -4.2
21,A39C A47C U55G C87U A107G,≤ -4.2
22,A39U G80C A91U,≤ -4.2
23,A39C A40C U53A C63G C95U C103U G128C,≤ -4.2
24,A39C C57G A89U A97G,-3.41

row,Variant,polymerase ribozyme fitness (log ratio)
1,A39C U55G G81C A121U,-2.31
2,C38U G92A C99A U127C,≤ -4.2
3,C38U U90A A98U,≤ -4.2
4,A39C U45G A73C G86A G141U,≤ -4.2
5,C38U G74A A98G A120C A150C,≤ -4.2
6,C38U G80C C96G A106U,≤ -4.2
7,A39C C85U C149U,-2.98
8,A39C G88U C103A A107U,≤ -4.2
9,A39U A122C U127G G140C,≤ -4.2
10,A39C G46A C54U G83U A89G U104G C114A,≤ -4.2
11,C38U U90A C96U A107G A137C,≤ -4.2
12,C38U G58C G81A U135G,≤ -4.2
13,A39U U139A,-3.87
14,A39U A40C C79A U82C C96A U109G A119U G143A,≤ -4.2
15,A39U A60U U146A,-3.58
16,C38U G74C G83A A142C,≤ -4.2
17,C38U C76U C85G C96A C103A C114U C132U,-4.19
18,A39U C43U U111G,≤ -4.2
19,C38U C57G G58A C116A A138G,≤ -4.2
20,A39U A52C U53G G70C C114G C131U G141C,≤ -4.2
21,C38U G88C G133U U144A,≤ -4.2
22,A39G A52C C87A U102G C132U,≤ -4.2
23,C38U G50A G126U A147C,≤ -4.2
24,A39C C54G G58C G117U G124U U134C,≤ -4.2

row,Variant,polymerase ribozyme fitness (log ratio)
1,A39G G42A C57U C69U C72G U77C G92U C103U,≤ -4.2
2,A39U U45G U61A A97C C103G A138U,≤ -4.2
3,A39U U45C C93U,≤ -4.2
4,A39U C51G U90A C105G C114U U127G G133C,≤ -4.2
5,A39G G42C A64U G84C C85U C103G C108U G117C,≤ -4.2
6,A39U G62A,-2.58
7,C38U U145A,0.631
8,C38U C95G,-1.3
9,A39C A89G C95U A115C A120U G126U U135G,≤ -4.2
10,A39U G74U G81C A91U A98G C99U G124A,≤ -4.2
11,A39U A49C U55A C87U C116G,≤ -4.2
12,C38U G92A A97U U130G C131G A138U A150G U151G,≤ -4.2
13,A39G A49G G70A C87A G94A C99G G126A,≤ -4.2
14,C38U U104A C116A G133U,≤ -4.2
15,A39G U101C,-1.89
16,A39C A97U G133A U134A,≤ -4.2
17,A39C G50C U55A U56A G92A U102A C105U A110G,≤ -4.2
18,C38U G92A G141U U148C,≤ -4.2
19,C38U C76G,≤ -4.2
20,A39U G50C G83U C87A C95G A138G,≤ -4.2
21,C38U G83C,-0.262
22,A39U A40U C54U G84C C85A G92C G128A,≤ -4.2
23,A39U U44A U56C A60C G62U G83A A107U,≤ -4.2
24,A39U A73U C85U C95G U145A,≤ -4.2

row,Variant,polymerase ribozyme fitness (log ratio)
1,C38U U53A U61A,-1.44
2,A39U G86A C93A U104G,≤ -4.2
3,A39C U53A G86C A142G,≤ -4.2
4,A39G G88A A142U,≤ -4.2
5,A39C G68A G80C G92C,≤ -4.2
6,A39G A60U G92A C118G A120G U148G,≤ -4.2
7,A39U C76A G83U C125U,≤ -4.2
8,A39C C79G G92A,-3.32
9,A40C A41C G50A C79A C87U,≤ -4.2
10,A39U A47G U139G U151G,≤ -4.2
11,C38U G48U C51U A91U G92U C93U,≤ -4.2
12,A39U A40U A52C U55C G70C U134G,≤ -4.2
13,A39C A40G A49C G80U G86U A106C A150C,≤ -4.2
14,A39U A73U,-4.11
15,A39U C85A U109G C114U C132A,≤ -4.2
16,A39U G50U A73G C85A C108A G141C,≤ -4.2
17,A39C C79U G94C A119C,≤ -4.2
18,A39U C57A G100U,≤ -4.2
19,A39C C76G A137C,≤ -4.2
20,A39C A40G C75A C87U,≤ -4.2
21,C38U G74A C76G U82C C85G,≤ -4.2
22,C38U U55G C85A,-2.3
23,C38U G88A G92U G140A,≤ -4.2
24,A39U G50A U56A C76A G86U U90C U134G,≤ -4.2

row,Variant,polymerase ribozyme fitness (log ratio)
1,A39G C72A G124U,≤ -4.2
2,A39G G62U C75U G92C A98G G152U,≤ -4.2
3,A39U C51U A97C C105U U144G U145G,≤ -4.2
4,A39C A47C G58C C87G U102C C108U G140U A142G,≤ -4.2
5,A39U C69U C95U C129G,≤ -4.2
6,A39U G50A C85U A89G C114G G124U A150C,≤ -4.2
7,A39G G48A C54A G88A C125U U134G U145C,≤ -4.2
8,A39G A52G G68C C79U G152U,≤ -4.2
9,A39C G86A C118G,≤ -4.2
10,A39C G68A A89G G128U A138G,≤ -4.2
11,A39U A47C U56A A89G C95U A142G,≤ -4.2
12,A39C G59A C85A G86U U134C,≤ -4.2
13,A39U A60G A137U,-4.19
14,A39G A41U C85A U90G A98G C129A,≤ -4.2
15,A39C U56A G88C A97C C103A,≤ -4.2
16,A39G A40G C93A U144A,≤ -4.2
17,A39G C76G G117A,≤ -4.2
18,A39G G42C A47C A91U C93U U101G A119U C125U G133U G136A,≤ -4.2
19,A39C A52U G83U A89C,≤ -4.2
20,C38U U44C G65C G68U A122C G136C,≤ -4.2
21,A39U U144C,-2.52
22,C38U C76U G81C,-0.0752
23,A39G C87G C108U,≤ -4.2
24,A39G G50U C123A G128U,≤ -4.2

row,Variant,polymerase ribozyme fitness (log ratio)
1,A39U G88C A121G G141C A147U,≤ -4.2
2,A39C C54A G81A,-3.05
3,A39G A40C G80C A91C C103G,≤ -4.2
4,C38U G140U,-2.77
5,C38U G83U C123U U148C,-2.21
6,A39G G88A G100U C114A G124U U148C,≤ -4.2
7,C38U U44A U55G C96A A110U G133A,≤ -4.2
8,A39C G46A C85A,≤ -4.2
9,C38U C57A A60U C79U G92C A119C A150C,≤ -4.2
10,A39C G46A U102A A113U U139A U144G,≤ -4.2
11,A39C A66G G88A C93G C116G G128U U139A,≤ -4.2
12,A39G C96U C125A,-2.58
13,A39U G80A C123G,-2.65
14,A39U G48A A60U G83C C103A U134G,≤ -4.2
15,A39U C54U G74U C93G G100A C105G,≤ -4.2
16,A39U A60G C87G C108A A115U,≤ -4.2
17,C38U U44A G70C U134G,≤ -4.2
18,A39U A40C A52U C72G C87U U104G C118U A122G,≤ -4.2
19,C38U C63G A97U G143C,-3.67
20,C38U C87A C116A A120C,≤ -4.2
21,C38U U44C G50C C103A C108A G117U U134G,≤ -4.2
22,C38U G86U G88C C99A,≤ -4.2
23,A39G G46A C63A C85G U134A,≤ -4.2

# Reference: the RNAGym collection of RNA variant scans (doi:10.1073/pnas.2313332121)
